Reference: the supplement of paper PMC8813932
Counter-ions that a name gives are not always drawn. Some of the results follow. Many values rest on one well or one pass, so single values are uncertain.

Tested on: Ov4Cis
Experiment: log2 surviving fraction relative to plate median (drug vs vehicle, or drug+dl922-947 vs dl922-947 alone); ovarian cancer lines: OVCAR4 is platinum-sensitive while Ov4Cis resists cisplatin and Ov4Carbo carboplatin; higher = more cell survival
Conditions: dl922-947 oncolytic adenovirus co-treatment: MOI 10; compound concentration: 10 uM; 192 h

Row | SMILES | log2 surviving fraction
1 | NCCCC(O)(P(=O)(O)O)P(=O)(O)O [Alendronate (Fosamax)] | -0.503
2 | NCCc1c[nH]c2ccc(O)cc12 [Serotonin HCl] | 0.384
3 | COc1ccc(CC2c3cc(OC)c(OC)cc3CC[N+]2(C)CCC(=O)OCCCCCOC(=O)CC[N+]2(C)CCc3cc(OC)c(OC)cc3C2Cc2ccc(OC)c(OC)c2)cc1OC (stereo not given) [Atracurium besylate] | 0.106
4 | Nc1nc(F)nc2c1ncn2[C@@H]1O[C@H](COP(=O)(O)O)[C@@H](O)[C@@H]1O [Fludarabine Phosphate (Fludara)] | -0.0325
5 | NCC[C@H](O)C(=O)N[C@@H]1C[C@H](N)[C@@H](O[C@H]2O[C@H](CN)[C@@H](O)[C@H](O)[C@H]2O)[C@H](O)[C@H]1O[C@H]1O[C@H](CO)[C@@H](O)[C@H](N)[C@H]1O [Amikacin sulfate] | -0.314
6 | O[C@@H]1CO[C@H]2[C@@H]1OC[C@@H]2O [Isosorbide] | 0.673
7 | C=C[C@H]1CN2CC[C@H]1C[C@H]2[C@H](O)c1ccnc2ccc(OC)cc12 [Quinine hydrochloride dihydrate] | -0.441
8 | Fc1ccc(C(c2ccc(F)cc2)N2CCN(C/C=C/c3ccccc3)CC2)cc1 [Flunarizine 2HCl] | -2.96
9 | CC(=O)[C@H]1CC[C@H]2[C@@H]3C[C@H](C)C4=CC(=O)CC[C@]4(C)[C@H]3[C@@H](O)C[C@]12C [Medrysone] | 1.3
10 | O=C(NC(Cc1cc(=O)[nH]c2ccccc12)C(=O)O)c1ccc(Cl)cc1 (stereo not given) [Rebamipide] | -0.402
11 | Nc1c2ccccc2nc2ccccc12 [9-Aminoacridine] | -3.59
12 | Cn1c(=O)c2c(ncn2CC2OCCO2)n(C)c1=O [Doxofylline] | -0.514
13 | CCOc1ccccc1OC(c1ccccc1)C1CNCCO1 (stereo not given) [Reboxetine mesylate] | -0.449
14 | CCC(=O)NCC[C@@H]1CCc2ccc3c(c21)CCO3 [Ramelteon (TAK-375)] | 1.95
15 | Cc1nc2n(c(=O)c1CCN1CCC(c3noc4cc(F)ccc34)CC1)CCCC2O (stereo not given) [Paliperidone (Invega)] | 0.679
16 | NCCc1ccc(O)c(O)c1 [Dopamine hydrochloride (Inotropin)] | -0.0667
17 | C#CCC(Cc1cnc2nc(N)nc(N)c2n1)c1ccc(C(=O)N[C@@H](CCC(=O)O)C(=O)O)cc1 (stereo not given in full) [Pralatrexate (Folotyn)] | -0.645
18 | CN(CCOc1ccc(NS(C)(=O)=O)cc1)CCc1ccc(NS(C)(=O)=O)cc1 [Dofetilide (Tikosyn)] | -0.423
19 | Cc1cc(=O)n(-c2ccccc2)n1C [Antipyrine] | 0.348
20 | C[C@H](CCC(=O)O)[C@H]1CC[C@H]2[C@@H]3[C@@H](O)C[C@@H]4C[C@H](O)CC[C@]4(C)[C@H]3CC[C@]12C [Ursodiol (Actigal Urso)] | 1

Row | SMILES | log2 surviving fraction
21 | O=S(=O)(O)NC1CCCCC1 [Cyclamic  acid] | 0.0534
22 | COc1ccc2cc1Oc1ccc(cc1)C[C@H]1c3c(cc4c(c3Oc3cc5c(cc3OC)CCN(C)[C@@H]5C2)OCO4)CCN1C [Cepharanthine] | -4.75
23 | O=c1[nH]cnc2c1ncn2[C@H]1CC[C@@H](CO)O1 [Didanosine (Videx)] | -1.02
24 | Fc1ccc([C@@H]2CCNC[C@H]2COc2ccc3c(c2)OCO3)cc1 [Paroxetine HCl] | -8.06
25 | CC(C)NCC(O)COc1ccc(COCCOC(C)C)cc1 (stereo not given) [Bisoprolol] | -0.199
26 | CC(=O)O[C@H]1C[C@@H]2CC[C@@H]3[C@H](CC[C@@]4(C)[C@H]3C[C@H]([N+]3(C)CCCCC3)[C@@H]4OC(C)=O)[C@@]2(C)C[C@@H]1N1CCCCC1 [Vecuronium Bromide] | 0.356
27 | CCCCOc1cc(C(=O)NCCN(CC)CC)c2ccccc2n1 [Dibucaine HCL] | -1.81
28 | CNC(=O)CN(CCN(CCN(CC(=O)O)CC(=O)NC)CC(=O)O)CC(=O)O.O.[Gd] [Gadodiamide (Omniscan)] | 0.0506
29 | COc1cc2nc(N(C)CCCNC(=O)C3CCCO3)nc(N)c2cc1OC (stereo not given) [Alfuzosin hydrochloride (Uroxatral)] | 0.142
30 | CCOC(=O)c1c(C)n(C)c2ccc(O)cc12 [Mecarbinate] | 0.236
31 | COc1ccc(C2CNC(=O)C2)cc1OC1CCCC1 (stereo not given) [Rolipram] | 0.459
32 | CCC1=C[C@@H]2CN(C1)Cc1c([nH]c3ccccc13)[C@@](C(=O)OC)(c1cc3c(cc1OC)N(C)[C@H]1[C@@](O)(C(=O)OC)[C@H](OC(C)=O)[C@]4(CC)C=CCN5CC[C@]31[C@@H]54)C2 [Vinorelbine (Navelbine)] | -4.42
33 | CC/C(=C(/CC)c1ccc(O)cc1)c1ccc(O)cc1 [Diethylstilbestrol (Stilbestrol)] | -0.781
34 | O=NN(CCCl)C(=O)NC1CCCCC1 [Lomustine (CeeNU)] | 0.488
35 | COc1cc(/C=C/C(=O)CC(=O)/C=C/c2ccc(O)c(OC)c2)ccc1O [Curcumin] | -1.55
36 | O=C1NC(=O)C(c2ccccc2)(c2ccccc2)N1 [Phenytoin (Lepitoin)] | -0.126
37 | CCCC(=O)OCOC(=O)C1=C(C)NC(C)=C(C(=O)OC)C1c1cccc(Cl)c1Cl (stereo not given) [Cleviprex (Clevidipine)] | -0.86
38 | O=P(O)(O)C(O)(Cn1ccnc1)P(=O)(O)O [Zoledronic Acid (Zoledronate)] | -0.0296
39 | CC1(C)S[C@@H]2[C@H](NC(=O)[C@H](N)c3ccccc3)C(=O)N2[C@H]1C(=O)O [Ampicillin sodium] | -0.0781
40 | Cc1c(C(=O)NN2CCCCC2)nn(-c2ccc(Cl)cc2Cl)c1-c1ccc(Cl)cc1 | -2.13
